Source: PubChem BioAssay AID720542 (National Center for Advancing Translational Sciences (NCATS), 2013)
Among all 360,000 compounds or so, about 740 (0.21%) were called active. The inconclusive results got no clear call from the source; some entries with a clear call stand among them for comparison. Calls come from the whole dose curve; as a rule, active = well fitted inhibition curve with a large enough effect; inconclusive = small, poorly fitted or top-dose-only effect; inactive = no such curve, though single readings can be large or run the other way. No potency is given beside an inconclusive call; the fits are too rough.

system: Plasmodium falciparum AMA1 (3D7) - RON2 peptide interaction; test: qHTS for Inhibitors of AMA1-RON; Towards Development of Antimalarial Drug Lead: Primary Screen; conditions: AlphaScreen AMA1-biotinylated RON2 peptide binding; activity change, negative = inhibition: at 58.2 µM (top of the series) unless noted; note: nearly all actives have a fitted effect of over 45% in size;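 for activity change, negative = inhibition: 0% = vehicle wells and -100% = peptide control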
Summary of the method: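 AMA1 (3D7) with his tag at 25 nM final met compounds first, then biotinylated RON2 peptide at 25 nM; detection used donor plus acceptor beads, 10 µg/mL apiece, read by AlphaScreen after 30 min at room temperature.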
Potency is the fitted concentration of half-maximal effect; tags give direction and shape of the fitted curve.

Row | SMILES | Potency | activity change, negative = inhibition
1 | CC(=O)NC(=O)COC(=O)c1ccc2ncsc2c1 | inconclusive [inhibitor, partial curve, poor fit] | 
2 | O=C(Nc1ccccn1)c1ccc2c(=O)n3c(nc2c1)CCCCC3 | inconclusive [inhibitor, single point] | 
3 | Cc1ccccc1NS(=O)(=O)c1cc(C(=O)N2CCCC2)ccc1Cl |  | inactive: -0.0718%
4 | CCCCCCC(=O)Oc1cccc(C2=CC(=O)CC(C)(C)C2=O)c1 |  | inactive: -19.2%
5 | c1cc2n(c1)-c1c(ccc3c1OCO3)CNC2c1ccc2c(c1)OCO2 (stereo unspecified) | inconclusive [inhibitor, single point] | 
6 | O=S(=O)(c1ccccc1)N1CCN(Cc2cccc(Br)c2)CC1 | inconclusive [inhibitor, partial curve, poor fit] | 
7 | COCCn1nnnc1C(c1ccccn1)N1CCN(c2cc(C)ccc2C)CC1 (stereo unspecified) | inconclusive [inhibitor, single point] | 
8 | CN(C)/C=C/C(=O)c1cnc(-c2cccc(Cl)c2)s1 |  | inactive: -23%
9 | COc1cccc2cc(C(=O)OCC(=O)N3CC(C)OC(C)C3)c(=O)oc12 (stereo unspecified) |  | inactive: -6.16%
10 | O=C(O)[C@@H](c1ccccc1)N1Cc2ccccc2C1=O | inconclusive [inhibitor, single point] | 
11 | CCOC(=O)c1sc(NC(=O)CNCc2cccnc2)c(C(=O)OCC)c1C |  | inactive: 45.7%
12 | O=C1NC(=S)NC1=Cc1ccco1 | inconclusive [inhibitor, single point] | 
13 | CCOc1cc(/C=C2\CN(CC)C/C(=C\c3ccc(O)c(OCC)c3)C2=O)ccc1O | inconclusive [inhibitor, single point] | 
14 | Cc1ccc(C(=O)N2CCSC2=S)cc1 | inconclusive [inhibitor, partial curve] | 
15 | COc1ccc(-c2nc3cccc(C)n3c2NCc2ccco2)cc1OC |  | inactive: -12.9%
16 | CCOC(=O)c1ccc(N2CCN(c3cc(C)ccc3C)CC2)c(N)c1 | inconclusive [inhibitor, single point] | 
17 | Cc1ccn2cc(-c3cccc([N+](=O)[O-])c3)nc2c1 |  | inactive: -18%
18 | COc1cc(NS(=O)(=O)c2ccc(C)cc2C)cc(OC)c1OC |  | inactive: -6.5%
19 | CN1/C(=c2/s/c(=C3/C(=O)N(c4ccccc4)NC3=Nc3ccccc3)n(C)c2=O)C(C)(C)c2ccccc21 | inconclusive [inhibitor, partial curve] | 
20 | CC(C)C(=O)N1CCc2cc(-c3csc(N)n3)ccc21 |  | inactive: -1.42%
21 | COc1ccc(-c2cc3nc(NCc4ccc(N(C)C)cc4)n(C)c(=O)c3s2)cc1OC | inconclusive [inhibitor, partial curve] | 
22 | Cc1ccccc1NC(=O)c1ccc(Nc2c([N+](=O)[O-])cc([N+](=O)[O-])c3ccccc23)cc1 | inconclusive [inhibitor, partial curve] | 
23 | C=C(C)Cn1c(C)cc(C)c(S(=O)(=O)c2ccc(C)cc2)c1=O | inconclusive [inhibitor, single point] | 
24 | COc1ccc(NC(=O)CN2CCCC(C)C2)c([N+](=O)[O-])c1 (stereo unspecified) | inconclusive [inhibitor, partial curve] | 

Row | SMILES | Potency | activity change, negative = inhibition
25 | Clc1ccc(/C=N/N2CCN(Cc3ccccc3Cl)CC2)cc1 | active: 12.6 µM | 
26 | O=[N+]([O-])c1cccc(Cl)c1CSc1ccccn1 | inconclusive [inhibitor, single point] | 
27 | CCOc1ccc(S(=O)(=O)N(C)c2ccc(OCC(=O)NCc3ccco3)cc2)cc1 | inconclusive [inhibitor, single point] | 
28 | COc1ccc(CCNc2ccc(N3C(=O)CC(C)C3=O)cc2[N+](=O)[O-])cc1 (stereo unspecified) | inconclusive [inhibitor, single point] | 
29 | Cc1ccc(S(=O)(=O)Oc2ccccc2[N+](=O)[O-])cc1 | inconclusive [inhibitor, partial curve] | 
30 | N/C(=N\OC(=O)C(c1ccccc1)c1ccccc1)c1ccccn1 |  | inactive: 68.5%
31 | COc1ccc(N2CCN(C(CNC(=O)C(=O)NCCCn3ccnc3)c3cccnc3)CC2)cc1 (stereo unspecified) | inconclusive [inhibitor, single point] | 
32 | Cc1nc(SCC(=O)N2CCN(c3ccccc3)CC2)c2oc3ccccc3c2n1 |  | inactive: -3.6%
33 | COc1cccc(CNc2nc(NCc3cccs3)nc3ccsc23)c1 | inconclusive [inhibitor, partial curve] | 
34 | COc1ccc(N2CCN(c3cc(C)nc4ccc(OC)cc34)CC2)cc1 | inconclusive [inhibitor, partial curve] | 
35 | O=C(Nc1ccccn1)c1cccc(S(=O)(=O)N2CCCc3ccccc32)c1 |  | inactive: 3.63%
36 | COc1cc(Br)cc(CN2CCN(C/C=C/c3ccccc3)CC2)c1O | inconclusive [inhibitor, partial curve] | 
37 | COCc1cc(=O)[nH]c(Nc2nc3ccc(C)cc3o2)n1 | inconclusive [inhibitor, single point] | 
38 | COc1cccc(C(=O)C2=NN(C(C)=O)CC2c2ccco2)c1 (stereo unspecified) | inconclusive [inhibitor, full curve, poor fit] | 
39 | Cc1ccc(/C=C/C(=O)c2c(C)nc3ccccn23)cc1 | inconclusive [inhibitor, partial curve] | 
40 | COc1ccc(C(=O)CCC(=O)Nc2ccc(N3CCCCC3)cc2)cc1OC | inconclusive [inhibitor, single point] | 
41 | CC(C)Oc1ccc(C(=O)/C(=C\c2cccs2)c2nc3ccccc3o2)cc1 | inconclusive [inhibitor, partial curve] | 
42 | CN(CCc1ccccc1)C(=O)c1ccc(NC(=O)Cc2ccc(NC(=O)C3CCN(C(=O)C4CCCC4)CC3)cc2)cc1 | inconclusive [inhibitor, partial curve] | 
43 | CCOc1cc(N2CCOCC2)c(OCC)cc1NCC(=O)N1CCN(Cc2ccccc2)CC1 | inconclusive [inhibitor, partial curve] | 
44 | Cc1ccc(C)c(S(=O)(=O)N2CCCCC2CCNC(=O)C(=O)NCc2ccco2)c1 (stereo unspecified) |  | inactive: -7.23%
45 | CCOc1ccccc1NC1=C(OC)C(=O)C(Nc2ccccc2OCC)=C(OC)C1=O | inconclusive [inhibitor, partial curve] | 
46 | Cc1ccc(C(=O)CCC(=O)NCc2ccc(Cl)cc2)cc1 |  | inactive: 8.06%
47 | CC(C)n1cnc2cc(NCc3ccco3)ccc21 | inconclusive [inhibitor, single point] | 
48 | CCOC(=O)c1cc(-c2ccccc2)n(CCC(=O)N2CCN(c3ccc(OC)cc3)CC2)c1C | inconclusive [inhibitor, single point] | 

Row | SMILES | Potency | activity change, negative = inhibition
49 | CN(C)Cc1ccc(O)c(CCc2ccccc2)n1 |  | inactive: -8.52%
50 | Brc1ccc(-c2csc(NC3=NCCCCC3)n2)cc1 | inconclusive [inhibitor, full curve, poor fit] | 
51 | O=C(c1cccs1)N1CCN(Cc2cccnc2)CC1 | inconclusive [inhibitor, partial curve] | 
52 | CCOc1ccc(C(C)(O)CN2CCOCC2)cc1 (stereo unspecified) | inconclusive [inhibitor, full curve, poor fit] | 
53 | COc1ccc(/C=C/CN2CCCC(C(=O)c3ccc(OC)c(F)c3)C2)cc1 (stereo unspecified) |  | inactive: -17.9%
54 | CCn1c(/C=C/c2c(C)n(CC)c3ccccc23)nc2ccccc2c1=O |  | inactive: 11.6%
55 | COc1ccc(NC(=S)N2CCC(N(C)CC3CCCO3)CC2)cc1Cl (stereo unspecified) |  | inactive: -9.11%
56 | COc1ccc(C2NC(Cc3ccccc3)(C(=O)O)C3C(=O)N(c4ccccc4OC)C(=O)C23)cc1 (stereo unspecified) |  | inactive: 2.66%
57 | O=[N+]([O-])c1ccc(Sc2nc3ccccc3o2)c([N+](=O)[O-])c1 | active: 26.7 µM | 
58 | CCC(C)[C@H](NC(=O)NCc1ccccc1)C(=O)O (stereo partly specified) |  | inactive: 1.52%
59 | Cc1ccc(CNc2ccc(CNc3ncn[nH]3)cc2)cc1 |  | inactive: -1.15%
60 | Cc1ccc(NS(=O)(=O)c2ccc(C)c(NC(=O)c3ccc(S(=O)(=O)N4CCCCCC4)cc3)c2)c(C)c1 |  | inactive: -8.53%
61 | Nc1ccc(Oc2ccc(Br)cc2)cc1 | inconclusive [inhibitor, partial curve] | 
62 | Cc1ccc(O)c(NC(=O)CSc2n[nH]c(-c3ccccc3)n2)c1 |  | inactive: -2.84%
63 | COc1cc(C(=O)Nc2ccc(O)cc2C(=O)O)ccc1OC(C)=O | inconclusive [inhibitor, single point] | 
64 | COc1cccc(N2CCN(c3ccc(S(=O)(=O)N4CCN(C)CC4)cc3[N+](=O)[O-])CC2)c1 | inconclusive [inhibitor, partial curve] | 
65 | COc1ccc2c(-c3ccc(OCCN4CCCCC4)cc3)c(-c3ccccc3OC)sc2c1 | inconclusive [inhibitor, partial curve] | 
66 | CCOc1ccccc1NS(=O)(=O)c1cccs1 | inconclusive [inhibitor, single point] | 
67 | Cc1ccc(NCc2ccco2)cc1C | inconclusive [inhibitor, single point] | 
68 | COc1cccc(/C=C/C(=O)c2cccc([N+](=O)[O-])c2)c1OC | inconclusive [inhibitor, single point] | 
69 | COC(=O)CCN1CCc2cc(N=Nc3ccc([N+](=O)[O-])cc3)ccc21 | inconclusive [inhibitor, full curve, poor fit] | 
70 | O=C(O)c1cccc(-c2ccc3c(c2)OCO3)c1 |  | inactive: 6.51%
71 | c1ccc(-c2ccc(-c3cnc4n3CCCCC4)cc2)cc1 | inconclusive [inhibitor, partial curve] | 
